From US8802826B2, “Anti-clusterin antibodies and antigen binding fragments and their use to reduce tumor volume” (Alethia Biotherapeutics Inc., priority 2009, dated 2014)

Biological target: T1, human clusterin (recombinant monomeric clusterin) (Homo sapiens, UniProt P10909)
T1 construct: Recombinant monomeric clusterin was immobilized on a CM3 chip with normal amine coupling method
Assay: BIAcore kinetic analysis of antibody binding to immobilized clusterin
Procedure: The purpose of these investigations is to determine the kinetics parameters of anti-clusterin antibodies. In particular, to determine whether the humanization of the 16B5 and 21B12 anti-clusterin monoclonal antibody affects the kinetics parameters of its binding to human clusterin. To this end, a kinetic analysis method was developed using the BIAcore 3000. Human clusterin was immobilized on a sensor chip. Full length antibodies or Fab fragments were injected and allowed to interact with the immobilized clusterin. This example described the exemplary antibody 16B5 but the 21B12 exemplary antibody was prepared and tested in a similar manner.
HBST (10 mM Hepes pH 7.4, 135 mM NaCl, 3.4 mM EDTA, 0.005% Tween 20) was used as running buffer for all BIAcore experiments. Recombinant monomeric clusterin was immobilized on a CM3 chip with normal amine coupling method at a flow of 5 μl/min. Surface was activated with 35 μl of a mixture of 50 mM NHS/0.2M EDC. Clusterin in 10 mM Na-acetate pH 4.5 was injected until a desired amount was captured (below 60RU). Unreacted esters were deactivated with 35 μL1 of 1M ethanolamine hydrochloride-NaOH pH8.5. A control surface was prepared by injecting NHS/EDC and ethanolamine in the same manner.
Kinetics analysis was conducted at a flow of 50 μl/min. Full length antibodies (mouse or humanized) or Fab were diluted in HBST. […]

T1 sequence (P10909 23-449): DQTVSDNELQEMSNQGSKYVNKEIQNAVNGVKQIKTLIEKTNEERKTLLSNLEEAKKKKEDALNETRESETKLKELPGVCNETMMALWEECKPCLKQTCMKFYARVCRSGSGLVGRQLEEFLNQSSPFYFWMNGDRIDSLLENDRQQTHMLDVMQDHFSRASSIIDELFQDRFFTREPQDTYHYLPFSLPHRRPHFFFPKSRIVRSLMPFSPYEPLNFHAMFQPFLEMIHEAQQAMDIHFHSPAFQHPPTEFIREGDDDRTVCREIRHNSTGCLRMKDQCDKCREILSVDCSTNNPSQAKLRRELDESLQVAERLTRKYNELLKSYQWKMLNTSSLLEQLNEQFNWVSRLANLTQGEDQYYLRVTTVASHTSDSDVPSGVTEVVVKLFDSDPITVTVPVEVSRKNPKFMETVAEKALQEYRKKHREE

B1: h21B12: humanized anti-clusterin IgG2 antibody, heavy chain SEQ ID NO.:19 and light chain SEQ ID NO.:20 (antibody)
heavy: QVQLVQSGSELKKPGASVKVSCKASGYTFTNYGMHWVRQAPGQGLEWMGWINTYTGEPTYADDFKGRFVFSLDTSVSTAYLQISSLKAEDTAVYYCARDGFLYFFDYWGQGTLVTVSSASTKGPSVFPLAPCSRSTSESTAALGCLVKDYFPEPVTVSWNSGALTSGVHTFPAVLQSSGLYSLSSVVTVPSSNFGTQTYTCNVDHKPSNTKVDKTVERKCCVECPPCPAPPVAGPSVFLFPPKPKDTLMISRTPEVTCVVVDVSHEDPEVQFNWYVDGVEVHNAKTKPREEQFNSTFRVVSVLTVVHQDWLNGKEYKCKVSNKGLPAPIEKTISKTKGQPREPQVYTLPPSREEMTKNQVSLTCLVKGFYPSDIAVEWESNGQPENNYKTTPPMLDSDGSFFLYSKLTVDKSRWQQGNVFSCSVMHEALHNHYTQKSLSLSPGK
light: DIVMTQSPDSLAVSLGERATINCKSSQSLLYSSNQKNYLAWYQQKPGQPPKLLIYWASTRESGVPDRFSGSGSGTDFTLTISSLQAEDVAVYYCQQYYIYPRTFGQGTKLEIKRTVAAPSVFIFPPSDEQLKSGTASVVCLLNNFYPREAKVQWKVDNALQSGNSQESVTEQDSKDSTYSLSSTLTLSKADYEKHKVYACEVTHQGLSSPVTKSFNRGEC
modifications: Complete heavy chain immunoglobulin sequence for h21B12; Complete light chain immunoglobulin sequence for h21B12
- kinetics parameters compared with the parent mouse antibody (full length vs full length, Fab vs Fab): similar
- KD of the interaction with immobilized human clusterin (stated in words): low nM range
